Results reported in the supplement of paper PMC8728848.
The other results are listed elsewhere or left out.

Assays:
Assay in all cases: glycan array binding signal (z-score within array); higher = stronger binding
Conditions in all cases: glycan notation: IUPAC condensed, linker removed; mutation: R82H, R255H
Gal(a1-6)Glc = target: Gal(a1-6)Glc
Method in brief: (§1)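 Glycan array data came from 3228 arrays in the Consortium for Functional Glycomics database, and only arrays with an available protein sequence were kept. Glycan names were put into IUPAC-condensed notation, and columns mapping to the same glycan were averaged. The binding signal is a within-array Z-score, averaged across arrays of one protein sequence run at different concentrations or buffers and across linkers. A negative Z-score can be read as non-binding.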

Gal(b1-2)Gal = target: Gal(b1-2)Gal
Method in brief: as §1

Gal(b1-3)Gal = target: Gal(b1-3)Gal
Method in brief: as §1

Gal(b1-3)Gal(b1-4)GlcNAc = target: Gal(b1-3)Gal(b1-4)GlcNAc
Method in brief: as §1

Gal(b1-3)GalNAc = target: Gal(b1-3)GalNAc
Method in brief: as §1

[1] = target: Gal(b1-3)GalNAc(a1-3)[Fuc(a1-2)]Gal(b1-4)Glc
Method in brief: as §1

[2] = target: Gal(b1-3)GalNAc(a1-3)[Fuc(a1-2)]Gal(b1-4)GlcNAc
Method in brief: as §1

Gal(b1-3)GalNAc(b1-3)Gal = target: Gal(b1-3)GalNAc(b1-3)Gal
Method in brief: as §1

[3] = target: Gal(b1-3)GalNAc(b1-3)Gal(a1-4)Gal(b1-4)Glc
Method in brief: as §1

[4] = target: Gal(b1-3)GalNAc(b1-4)Gal(b1-4)Glc
Method in brief: as §1

[5] = target: Gal(b1-3)GalNAc(b1-4)[Neu5Ac(a2-3)]Gal(b1-4)Glc
Method in brief: as §1

Gal(b1-3)GlcNAc = target: Gal(b1-3)GlcNAc
Method in brief: as §1

[6] = target: Gal(b1-3)GlcNAc(a1-3)Gal(b1-4)GlcNAc
Method in brief: as §1

[7] = target: Gal(b1-3)GlcNAc(a1-6)Gal(b1-4)GlcNAc
Method in brief: as §1

Gal(b1-3)GlcNAc(b1-2)Man = target: Gal(b1-3)GlcNAc(b1-2)Man
Method in brief: as §1

[8] = target: Gal(b1-3)GlcNAc(b1-2)Man(a1-3)[Gal(b1-3)GlcNAc(b1-2)Man(a1-6)]Man(b1-4)GlcNAc(b1-4)GlcNAc
Method in brief: as §1

[9] = target: Gal(b1-3)GlcNAc(b1-2)Man(a1-3)[Gal(b1-3)GlcNAc(b1-2)Man(a1-6)]Man(b1-4)GlcNAc(b1-4)[Fuc(a1-6)]GlcNAc
Method in brief: as §1

[10] = target: Gal(b1-3)GlcNAc(b1-2)Man(a1-3)[GlcNAc(b1-4)][Gal(b1-3)GlcNAc(b1-2)Man(a1-6)]Man(b1-4)GlcNAc(b1-4)GlcNAc
Method in brief: as §1

[11] = target: Gal(b1-3)GlcNAc(b1-2)[Gal(b1-3)GlcNAc(b1-6)]Man(a1-6)[Gal(b1-3)GlcNAc(b1-2)Man(a1-3)]Man(b1-4)GlcNAc(b1-4)GlcNAc
Method in brief: as §1

[12] = target: Gal(b1-3)GlcNAc(b1-3)Gal(b1-3)GlcNAc
Method in brief: as §1

[13] = target: Gal(b1-3)GlcNAc(b1-3)Gal(b1-4)Glc
Method in brief: as §1

[14] = target: Gal(b1-3)GlcNAc(b1-3)Gal(b1-4)GlcNAc
Method in brief: as §1

[15] = target: Gal(b1-3)GlcNAc(b1-3)Gal(b1-4)GlcNAc(b1-2)Man(a1-3)[Gal(b1-3)GlcNAc(b1-3)Gal(b1-4)GlcNAc(b1-2)Man(a1-6)]Man(b1-4)GlcNAc(b1-4)GlcNAc
Method in brief: as §1

[16] = target: Gal(b1-3)GlcNAc(b1-3)Gal(b1-4)GlcNAc(b1-2)[Gal(b1-3)GlcNAc(b1-3)Gal(b1-4)GlcNAc(b1-6)]Man(a1-6)[Gal(b1-3)GlcNAc(b1-3)Gal(b1-4)GlcNAc(b1-2)Man(a1-3)]Man(b1-4)GlcNAc(b1-4)[Fuc(a1-6)]GlcNAc
Method in brief: as §1

[17] = target: Gal(b1-3)GlcNAc(b1-3)Gal(b1-4)GlcNAc(b1-3)Gal(b1-4)GlcNAc(b1-2)[Gal(b1-3)GlcNAc(b1-3)Gal(b1-4)GlcNAc(b1-3)Gal(b1-4)GlcNAc(b1-6)]Man(a1-6)[Gal(b1-3)GlcNAc(b1-3)Gal(b1-4)GlcNAc(b1-3)Gal(b1-4)GlcNAc(b1-2)Man(a1-3)]Man(b1-4)GlcNAc(b1-4)[Fuc(a1-6)]GlcNAc
Method in brief: as §1

[18] = target: Gal(b1-3)GlcNAc(b1-3)Gal(b1-4)GlcNAc(b1-6)[Gal(b1-3)GlcNAc(b1-3)]Gal(b1-4)Glc
Method in brief: as §1

[19] = target: Gal(b1-3)GlcNAc(b1-3)Gal(b1-4)[Fuc(a1-3)]GlcNAc
Method in brief: as §1

[20] = target: Gal(b1-3)GlcNAc(b1-3)Gal(b1-4)[Fuc(a1-3)]GlcNAc(b1-6)[Gal(b1-3)GlcNAc(b1-3)]Gal(b1-4)Glc
Method in brief: as §1

[21] = target: Gal(b1-3)GlcNAc(b1-3)GalNAc
Method in brief: as §1

[22] = target: Gal(b1-3)GlcNAc(b1-6)Gal(b1-4)GlcNAc
Method in brief: as §1

[23] = target: Gal(b1-3)GlcNAc(b1-6)GalNAc
Method in brief: as §1

[24] = target: Gal(b1-3)GlcNAc(b1-6)[Gal(b1-3)]GalNAc
Method in brief: as §1

Gal(b1-3)GlcNAc6S = target: Gal(b1-3)GlcNAc6S
Method in brief: as §1

[25] = target: Gal(b1-3)[Fuc(a1-4)]GlcNAc
Method in brief: as §1

[26] = target: Gal(b1-3)[Fuc(a1-4)]GlcNAc(b1-2)Man
Method in brief: as §1

[27] = target: Gal(b1-3)[Fuc(a1-4)]GlcNAc(b1-2)Man(a1-3)[Gal(b1-3)[Fuc(a1-4)]GlcNAc(b1-2)Man(a1-6)]Man(b1-4)GlcNAc(b1-4)[Fuc(a1-6)]GlcNAc
Method in brief: as §1

[28] = target: Gal(b1-3)[Fuc(a1-4)]GlcNAc(b1-3)Gal(b1-3)[Fuc(a1-4)]GlcNAc
Method in brief: as §1

B1: Gal 8 (Mus musculus), Q9JL15 (protein)
chain: MGGSHHHHHHGMASMLSLNNLQNIIYNPIIPYVGTITEQLKPGSLIVIRGHVPKDSERFQVDFQLGNSLKPRADVAFHFNPHFKRSSCIVCNTLTQEKWGWEEITYDMPFRKEKSFEIVFMVLKNKFQVAVNGRHVLLYAHRISPEQIDTVGIYGKVNIHSIGFRFSSASALPHTLGDLQSMETSALGLTQINRENIQKPGKLQLSLPFEARLNASMGPGRTVVIKGEVNTNARSFNVDLVAGKTRDIALHLNPHLNVKAFVRNSFLQDAWGEEERNITCFPFSSGMYFEMIIYCDVREFKVAINGVHSLEYKHRFKDLSSIDTLSVDGDIRLLDVRSW
glycan array binding signal (z-score) (Gal(a1-6)Glc): -0.238 | glycan array binding signal (z-score) (Gal(b1-2)Gal): -0.193 | glycan array binding signal (z-score) (Gal(b1-3)Gal): -0.21 | glycan array binding signal (z-score) (Gal(b1-3)Gal(b1-4)GlcNAc): -0.243 | glycan array binding signal (z-score) (Gal(b1-3)GalNAc): -0.251 | glycan array binding signal (z-score) [1]: -0.239 | glycan array binding signal (z-score) [2]: -0.16 | glycan array binding signal (z-score) (Gal(b1-3)GalNAc(b1-3)Gal): -0.265 | glycan array binding signal (z-score) [3]: -0.235 | glycan array binding signal (z-score) [4]: -0.226 | glycan array binding signal (z-score) [5]: -0.26 | glycan array binding signal (z-score) (Gal(b1-3)GlcNAc): -0.27 | glycan array binding signal (z-score) [6]: -0.269 | glycan array binding signal (z-score) [7]: -0.273 | glycan array binding signal (z-score) (Gal(b1-3)GlcNAc(b1-2)Man): -0.136 | glycan array binding signal (z-score) [8]: -0.258 | glycan array binding signal (z-score) [9]: -0.11 | glycan array binding signal (z-score) [10]: -0.27 | glycan array binding signal (z-score) [11]: -0.332 | glycan array binding signal (z-score) [12]: -0.254 | glycan array binding signal (z-score) [13]: -0.263 | glycan array binding signal (z-score) [14]: -0.268 | glycan array binding signal (z-score) [15]: -0.237 | glycan array binding signal (z-score) [16]: -0.036 | glycan array binding signal (z-score) [17]: -0.109 | glycan array binding signal (z-score) [18]: -0.283 | glycan array binding signal (z-score) [19]: -0.26 | glycan array binding signal (z-score) [20]: -0.278 | glycan array binding signal (z-score) [21]: -0.305 | glycan array binding signal (z-score) [22]: -0.271 | glycan array binding signal (z-score) [23]: -0.274 | glycan array binding signal (z-score) [24]: -0.218 | glycan array binding signal (z-score) (Gal(b1-3)GlcNAc6S): -0.273 | glycan array binding signal (z-score) [25]: -0.027 | glycan array binding signal (z-score) [26]: -0.226 | glycan array binding signal (z-score) [27]: -0.256 | glycan array binding signal (z-score) [28]: -0.242
